# The supplement of paper PMC8728848
# This is one part of the list.
# What was measured:
# Test in all cases: glycan array binding signal (z-score within array); higher = stronger binding
# Settings in all cases: glycan notation: IUPAC condensed, linker removed
# [1] = target: Fuc(a1-2)Gal(b1-4)GlcNAc(b1-3)Gal(b1-4)GlcNAc(b1-3)Gal(b1-4)GlcNAc
# Procedure, shortened: (§1)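 Glycan array binding is given as a within-array Z-score, which can be read as non-binding when negative. The arrays, 3228 of them, came from the Consortium for Functional Glycomics database and were retained only where the protein sequence was available. Z-scores were averaged across arrays of the same protein sequence at different concentrations or buffers and across linkers.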
# [2] = target: Fuc(a1-2)Gal(b1-4)GlcNAc(b1-3)GalNAc
# Procedure, shortened: as §1
# [3] = target: Fuc(a1-2)Gal(b1-4)GlcNAc(b1-3)[Fuc(a1-2)Gal(b1-4)GlcNAc(b1-6)]GalNAc
# Procedure, shortened: as §1
# [4] = target: Fuc(a1-2)Gal(b1-4)GlcNAc(b1-3)[Fuc(a1-3)[Gal(b1-4)]GlcNAc(b1-6)]Gal(b1-4)Glc
# Procedure, shortened: as §1
# [5] = target: Fuc(a1-2)Gal(b1-4)GlcNAc(b1-6)GalNAc
# Procedure, shortened: as §1
# [6] = target: Fuc(a1-2)Gal(b1-4)GlcNAc6S
# Procedure, shortened: as §1
# [7] = target: Fuc(a1-2)Gal(b1-4)[Fuc(a1-3)]GlcNAc
# Procedure, shortened: as §1
# [8] = target: Fuc(a1-2)Gal(b1-4)[Fuc(a1-3)]GlcNAc(b1-2)Man(a1-3)[Fuc(a1-2)Gal(b1-4)[Fuc(a1-3)]GlcNAc(b1-2)Man(a1-6)]Man(b1-4)GlcNAc(b1-4)[Fuc(a1-6)]GlcNAc
# Procedure, shortened: as §1
# [9] = target: Fuc(a1-2)Gal(b1-4)[Fuc(a1-3)]GlcNAc(b1-2)[Fuc(a1-2)Gal(b1-4)[Fuc(a1-3)]GlcNAc(b1-4)]Man(a1-3)[Fuc(a1-2)Gal(b1-4)[Fuc(a1-3)]GlcNAc(b1-2)Man(a1-6)]Man(b1-4)GlcNAc(b1-4)GlcNAc
# Procedure, shortened: as §1
# [10] = target: Fuc(a1-2)Gal(b1-4)[Fuc(a1-3)]GlcNAc(b1-3)Gal(b1-4)[Fuc(a1-3)]GlcNAc
# Procedure, shortened: as §1
# [11] = target: Fuc(a1-2)Gal(b1-4)[Fuc(a1-3)]GlcNAc(b1-3)Gal(b1-4)[Fuc(a1-3)]GlcNAc(b1-3)Gal(b1-4)[Fuc(a1-3)]GlcNAc
# Procedure, shortened: as §1
# [12] = target: Fuc(a1-2)Gal(b1-4)[Fuc(a1-3)]GlcNAc(b1-3)GalNAc
# Procedure, shortened: as §1
# [13] = target: Fuc(a1-2)Gal(b1-4)[Fuc(a1-3)]GlcNAc(b1-3)[Neu5Ac(a2-6)Gal(b1-4)GlcNAc(b1-6)]Gal(b1-4)Glc
# Procedure, shortened: as §1
# [14] = target: Fuc(a1-2)Gal3S(b1-4)GlcNAc
# Procedure, shortened: as §1
# [15] = target: Fuc(a1-2)Gal6S(b1-3)GlcNAc
# Procedure, shortened: as §1
# [16] = target: Fuc(a1-2)Gal6S(b1-3)GlcNAc6S
# Procedure, shortened: as §1
# [17] = target: Fuc(a1-2)Gal6S(b1-4)Glc
# Procedure, shortened: as §1
# [18] = target: Fuc(a1-2)Gal6S(b1-4)Glc6S
# Procedure, shortened: as §1
# [19] = target: Fuc(a1-2)[Gal(a1-3)]Gal
# Procedure, shortened: as §1
# [20] = target: Fuc(a1-2)[Gal(a1-3)]Gal(b1-3)GalNAc
# Procedure, shortened: as §1
# [21] = target: Fuc(a1-2)[Gal(a1-3)]Gal(b1-3)GalNAc(b1-3)Gal(a1-4)Gal(b1-4)Glc
# Procedure, shortened: as §1
# [22] = target: Fuc(a1-2)[Gal(a1-3)]Gal(b1-3)GlcNAc
# Procedure, shortened: as §1
# [23] = target: Fuc(a1-2)[Gal(a1-3)]Gal(b1-3)GlcNAc(b1-2)Man(a1-3)[Fuc(a1-2)[Gal(a1-3)]Gal(b1-3)GlcNAc(b1-2)Man(a1-6)]Man(b1-4)GlcNAc(b1-4)GlcNAc
# Procedure, shortened: as §1
# [24] = target: Fuc(a1-2)[Gal(a1-3)]Gal(b1-3)GlcNAc(b1-2)Man(a1-3)[Fuc(a1-2)[Gal(a1-3)]Gal(b1-3)GlcNAc(b1-2)Man(a1-6)]Man(b1-4)GlcNAc(b1-4)[Fuc(a1-6)]GlcNAc
# Procedure, shortened: as §1
# [25] = target: Fuc(a1-2)[Gal(a1-3)]Gal(b1-3)GlcNAc(b1-3)GalNAc
# Procedure, shortened: as §1
# [26] = target: Fuc(a1-2)[Gal(a1-3)]Gal(b1-3)GlcNAc(b1-6)GalNAc
# Procedure, shortened: as §1
# [27] = target: Fuc(a1-2)[Gal(a1-3)]Gal(b1-4)Glc
# Procedure, shortened: as §1
# [28] = target: Fuc(a1-2)[Gal(a1-3)]Gal(b1-4)GlcNAc
# Procedure, shortened: as §1
# [29] = target: Fuc(a1-2)[Gal(a1-3)]Gal(b1-4)GlcNAc(b1-2)Man
# Procedure, shortened: as §1
# [30] = target: Fuc(a1-2)[Gal(a1-3)]Gal(b1-4)GlcNAc(b1-2)Man(a1-3)[Fuc(a1-2)[Gal(a1-3)]Gal(b1-4)GlcNAc(b1-2)Man(a1-6)]Man(b1-4)GlcNAc(b1-4)GlcNAc
# Procedure, shortened: as §1
# [31] = target: Fuc(a1-2)[Gal(a1-3)]Gal(b1-4)GlcNAc(b1-2)Man(a1-3)[Fuc(a1-2)[Gal(a1-3)]Gal(b1-4)GlcNAc(b1-2)Man(a1-6)]Man(b1-4)GlcNAc(b1-4)[Fuc(a1-6)]GlcNAc
# Procedure, shortened: as §1
# [32] = target: Fuc(a1-2)[Gal(a1-3)]Gal(b1-4)GlcNAc(b1-3)GalNAc
# Procedure, shortened: as §1
# [33] = target: Fuc(a1-2)[Gal(a1-3)]Gal(b1-4)GlcNAc(b1-6)GalNAc
# Procedure, shortened: as §1
# [34] = target: Fuc(a1-2)[Gal(a1-3)]Gal(b1-4)[Fuc(a1-3)]Glc
# Procedure, shortened: as §1
# [35] = target: Fuc(a1-2)[Gal(a1-3)]Gal(b1-4)[Fuc(a1-3)]GlcNAc
# Procedure, shortened: as §1
# [36] = target: Fuc(a1-2)[Gal(a1-3)]Gal(b1-4)[Fuc(a1-3)]GlcNAc(b1-3)GalNAc
# Procedure, shortened: as §1
# [37] = target: Fuc(a1-2)[Gal(a1-4)]Gal(b1-4)GlcNAc
# Procedure, shortened: as §1
binder,measurement,setting,value
ACA (Amaranthus caudatus) (protein) MAGLPVIMCLKSNNNQKYLRYQSDNIQQYGLLQFSADKILDPLAQFEVEPSKTYDGLVHIKSRYTNKYLVRWSPNHYWITASANEPDENKSNWACTLFKPLYVEEGNMKKVRLLHVQLGHYTQNYTVGGSFVSYLFAESSQIDTGSKDVFHVIDWKSIFQFPKRYVTFKGNNGKYLGVITINQLPCLQFGYDNLNDPKVAHEMFVTSNGTICIKSTYMNKFWRLSTDDWILVDGNDPRETNEAAALFRSDVHDFNVISLLNMQKTWFIKRFTSGKPGFINCMNAATQNVDETAILEIIELGSNN,glycan array binding signal (z-score),[1],-0.044
same,glycan array binding signal (z-score),[2],-0.181
same,glycan array binding signal (z-score),[3],0.141
same,glycan array binding signal (z-score),[4],-0.303
same,glycan array binding signal (z-score),[5],0.319
same,glycan array binding signal (z-score),[6],-0.216
same,glycan array binding signal (z-score),[7],-0.061
same,glycan array binding signal (z-score),[8],0.071
same,glycan array binding signal (z-score),[9],0.91
same,glycan array binding signal (z-score),[10],-0.483
same,glycan array binding signal (z-score),[11],0.327
same,glycan array binding signal (z-score),[12],0.188
same,glycan array binding signal (z-score),[13],-0.408
same,glycan array binding signal (z-score),[14],-0.222
same,glycan array binding signal (z-score),[15],-0.197
same,glycan array binding signal (z-score),[16],-0.216
same,glycan array binding signal (z-score),[17],-0.278
same,glycan array binding signal (z-score),[18],-0.123
same,glycan array binding signal (z-score),[19],-0.175
same,glycan array binding signal (z-score),[20],-0.284
same,glycan array binding signal (z-score),[21],-0.181
same,glycan array binding signal (z-score),[22],0.33
same,glycan array binding signal (z-score),[23],-0.45
same,glycan array binding signal (z-score),[24],-0.343
same,glycan array binding signal (z-score),[25],-0.235
same,glycan array binding signal (z-score),[26],0.471
same,glycan array binding signal (z-score),[27],-0.242
same,glycan array binding signal (z-score),[28],-0.304
same,glycan array binding signal (z-score),[29],-0.223
same,glycan array binding signal (z-score),[30],0.028
same,glycan array binding signal (z-score),[31],-0.403
same,glycan array binding signal (z-score),[32],-0.078
same,glycan array binding signal (z-score),[33],0.406
same,glycan array binding signal (z-score),[34],-0.424
same,glycan array binding signal (z-score),[35],0.218
same,glycan array binding signal (z-score),[36],0.188
same,glycan array binding signal (z-score),[37],-0.302
